Experimental data as given in ChEMBL document CHEMBL4888484, “Replenishing the malaria drug discovery pipeline: Screening and hit evaluation of the MMV Hit Generation Library 1 (HGL1) against asexual blood stage Plasmodium falciparum ,using a nano luciferase reporter read-out” (2022).
About 540 (0.36%) of roughly 150,000 compounds showed an effect of 50% or more. Some of the results follow.

The molecules below were run on Plasmodium falciparum (assay: Primary screen in NF54 nanoGlo assay, in single point, at 2uM, 72h; a lower Z score goes with more inhibition). Settings: timepoint 72 hour.
Type: functional, Erythrocyte

| Structure (SMILES) | % Inhibition | Z score |
| --- | --- | --- |
| CN(Cc1cc[nH]n1)C(=O)NCCOc1cccc(Cl)c1Cl | -3% | 0.51 |
| Cc1nnc([C@H]2CCN(C(=O)c3cccs3)C2)o1 | -7% | 0.99 |
| O=C(c1ccc(Cl)cc1OC1CCN(CCCC(F)(F)F)CC1)N1CCCCC1 | -11% | 1.26 |
| COCc1nc(C)cc(NCCCn2cncn2)n1 | -9% | 1.85 |
| COc1ccc(-c2noc(-c3cc(-c4ccccc4)nc4ccccc34)n2)cc1 | -1% | 0.27 |
| CO[C@H]1C[C@H](C(=O)N2CC(C)(C)OC(C)(C)C2)N(C(C)=O)C1 | 0% | 0.07 |
| CN(Cc1ccc[nH]1)C(=O)C1(Cc2ccc(F)cc2)CCOCC1 | -9% | 1.12 |
| CC1=NO[C@@H](CNc2nc3ccccc3o2)C1 | -4% | 0.79 |
| Clc1ccccc1C[C@H]1CN(CCCn2cccn2)CCO1 | 4% | -0.59 |
| COc1ccc(C(=O)N2CCN(c3ccc(NC(=O)Cc4ccc(F)cc4)cn3)CC2)cc1 | -11% | 1.33 |
| CCNC(=O)N1CC(C(=O)NCc2ccccc2F)CC(c2ccc(F)c(C)c2)C1 (stereo unspecified) | -7% | 0.96 |
| CC(C)(C)OC(=O)N1CC(NC(=O)C2CC2c2ccccc2C(F)(F)F)C1 (stereo unspecified) | 39% | -5.02 |
| CC(F)(F)c1ccc(C(=O)N[C@@H]2CCCC[C@H]2S(C)(=O)=O)cn1 | -4% | 0.51 |
| CCCNC(=O)C1CCN(c2nnc(-c3ccc(OC)cc3)o2)CC1 | -11% | 1.64 |
| CCOC1CC(N(C)C(=O)c2cn3cccnc3n2)C12CCCC2 (stereo unspecified) | -11% | 1.53 |
| CC(C)(C)C(=O)N1CCC(N2CCc3cc(Br)cc(F)c3C2)CC1 | -12% | 1.44 |
| O=C(NC1CCCCC1)N1CCC[C@H](c2nnnn2-c2ccccc2)C1 | -7% | 1.07 |
| Cc1ccccc1-c1onc(C)c1C(=O)NCCC1(C)OCCO1 | -8% | 1.37 |
| CCOc1ccccc1-c1nc(Cn2c(=O)c3cnc(-c4ccncc4)nc3n(C)c2=O)c(C)o1 | 5% | -0.82 |
| CCS(=O)(=O)c1ccc(N2CCN(Cc3n[nH]c(C)n3)CC2)cc1 | -9% | 1.7 |
| CCCc1nc(C)cc(NCc2n[nH]c(=O)[nH]2)n1 | -13% | 1.65 |
| COc1ncc(CN2CCc3[nH]nc(C)c3C2)cn1 | -1% | 0.14 |

| Structure (SMILES) | % Inhibition | Z score |
| --- | --- | --- |
| COc1ccccc1CNC(=O)c1coc(COc2cccc(F)c2F)n1 | 1% | -0.13 |
| Cc1nsc(-c2ccccc2N(C)C)n1 | -11% | 1.13 |
| CNC(=O)[C@@H]1CN(C(=O)c2cc(-c3ccccc3)n(C)c2C)C[C@H]1CO | -1% | 0.17 |
| Cc1ccc2c(c1)N(C(=O)Cn1cccc1-c1nc(-c3ccc(Br)cc3)no1)CCO2 | 0% | 0 |
| O=C(NCc1cccnc1-c1cccnc1)c1cccnc1 | -8% | 1.22 |
| Cc1nn(CCNS(=O)(=O)c2cccs2)c(C)c1-c1cccs1 | 19% | -2.39 |
| Cn1cncc1COc1ccc2c(c1)CCCNC2=O | -2% | 0.24 |
| CCc1nc(NC(=O)c2sc(COc3ccc(Cl)c(C)c3)nc2C)sc1C(=O)OC | -11% | 1.61 |
| COCC1(O)CN(C(=O)[C@H](C)OC2CCCCCC2)C1 | -13% | 1.39 |
| CNC(=NC[C@H](C)N1CCc2ccccc21)NC | -12% | 1.74 |
| CCOc1ccc(C(=O)NCCN2C(=O)COC2=O)cc1 | 11% | -1.46 |
| Cc1ccc(-c2cccc(-c3ccn(Cc4ccc(C#N)cc4)n3)c2)nn1 | -5% | 0.64 |
| C[C@@H](CCOc1cnn(C)c1)OCc1ccccc1 | -15% | 1.64 |
| CN(C[C@H](O)C(F)(F)F)C(=O)CC1CN(C(=O)OC(C)(C)C)C1 | -10% | 0.89 |
| COc1ccc(C(=O)Nc2ccccc2NC(=O)c2ccco2)c(OC)c1 | 7% | -1.27 |
| CCCN1C(=O)[C@H]2C(C(=O)Nc3ccc(OC)cc3)[C@H]3C=C[C@@]2(O3)C1C(=O)NC1CCCCC1 (stereo partly specified) | 6% | -1 |
| CCCNC(=O)c1sc(-n2nc(C)c(Cc3ccccc3Cl)c2C)nc1C | 6% | -1.12 |
| COc1ccc(CCNC(=O)c2cc(-c3cc(Cl)cc(Cl)c3)oc2C)cc1 | 25% | -3.4 |
| CCN(CCC#N)S(=O)(=O)N1CCC[C@H](C)C1 | 34% | -3.08 |
| Cc1ccc(S(=O)(=O)Nc2ccc3c(c2)-c2ccccc2S(=O)(=O)N3)cc1 | 24% | -2.72 |
| COC(=O)c1cc(NC(=O)NCC(F)(F)F)c(C)cc1C | -3% | 0.6 |
